# Measured values published in the supplement of paper PMC8728848.
# The other results are listed elsewhere or left out.
# B1: AT5G01260(PC)(40) (Arabidopsis thaliana), Q9LFB0 (protein)
# chain: MIGIGRTLTSSSPSKIILEDLPPGIYRYGTEIFTSVPRKTFHHIKFLRLDSAQSSRILKPVPLRSSSIKDSQVNVEDEEIEASNKTVRVRFQLRKECVFGEHFFIVGDDPVFGGLWDPETALPLNWSDGNVWTVDLDLPVGRLVEFKLLLKAQTGEILWQPGPNRALETWETNKTIRICEDWDNADLQMMIEEDFVPYTNISSIGSEDEDEVLGSVQQNSSVVAVENAGYVSDESAQNSSFSIQSEKTMEPSNGALTAREVIKEAMFTEEESPVLVPGLIPLSDLDNEQVEVINEGKAETFPEVDKKQEPKAERNKKAKVKAISLFEKSEQEAVKSVEQRQYNAVEEEQQRLETEPLGTPDVLFENDIQWGRRTLYKLLSNFRLF
# How the values were obtained:
# Test in all cases: glycan array binding signal (z-score within array); higher = stronger binding
# Settings in all cases: glycan notation: IUPAC condensed, linker removed
# [1] = target: Neu5Ac(a2-3)Gal(b1-4)GlcNAc(b1-3)[Neu5Ac(a2-3)Gal(b1-4)GlcNAc(b1-6)]GalNAc
# Method in brief: (§1)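 Glycan array data were curated from 3228 arrays in the Consortium for Functional Glycomics database and kept only where the protein sequence was available. Glycan names were converted to IUPAC-condensed notation, and columns mapping to the same glycan were averaged. The binding signal is a within-array Z-score, averaged across arrays of the same protein sequence at different concentrations or buffers and across linkers. Negative Z-scores can be read as non-binding.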
# [2] = target: Neu5Ac(a2-3)Gal(b1-4)GlcNAc(b1-6)GalNAc
# Method in brief: as §1
# [3] = target: Neu5Ac(a2-3)Gal(b1-4)GlcNAc(b1-6)[Gal(b1-3)]GalNAc
# Method in brief: as §1
# [4] = target: Neu5Ac(a2-3)Gal(b1-4)GlcNAc(b1-6)[Neu5Ac(a2-3)Gal(b1-3)]GalNAc
# Method in brief: as §1
# [5] = target: Neu5Ac(a2-3)Gal(b1-4)GlcNAc6S
# Method in brief: as §1
# [6] = target: Neu5Ac(a2-3)Gal(b1-4)[Fuc(a1-3)]GlcNAc
# Method in brief: as §1
# [7] = target: Neu5Ac(a2-3)Gal(b1-4)[Fuc(a1-3)]GlcNAc(b1-2)Man
# Method in brief: as §1
# [8] = target: Neu5Ac(a2-3)Gal(b1-4)[Fuc(a1-3)]GlcNAc(b1-3)Gal
# Method in brief: as §1
# [9] = target: Neu5Ac(a2-3)Gal(b1-4)[Fuc(a1-3)]GlcNAc(b1-3)Gal(b1-4)GlcNAc
# Method in brief: as §1
# [10] = target: Neu5Ac(a2-3)Gal(b1-4)[Fuc(a1-3)]GlcNAc(b1-3)Gal(b1-4)[Fuc(a1-3)]GlcNAc(b1-3)Gal(b1-4)[Fuc(a1-3)]GlcNAc
# Method in brief: as §1
# [11] = target: Neu5Ac(a2-3)Gal(b1-4)[Fuc(a1-3)]GlcNAc(b1-3)GalNAc
# Method in brief: as §1
# [12] = target: Neu5Ac(a2-3)Gal(b1-4)[Fuc(a1-3)]GlcNAc(b1-6)[Gal(b1-3)]GalNAc
# Method in brief: as §1
# [13] = target: Neu5Ac(a2-3)Gal(b1-4)[Fuc(a1-3)]GlcNAc(b1-6)[Neu5Ac(a2-3)Gal(b1-3)]GalNAc
# Method in brief: as §1
# [14] = target: Neu5Ac(a2-3)Gal(b1-4)[Fuc(a1-3)]GlcNAc6S
# Method in brief: as §1
# [15] = target: Neu5Ac(a2-3)Gal6S(b1-4)GlcNAc
# Method in brief: as §1
# [16] = target: Neu5Ac(a2-3)Gal6S(b1-4)[Fuc(a1-3)]GlcNAc
# Method in brief: as §1
# Neu5Ac(a2-3)GalNAc = target: Neu5Ac(a2-3)GalNAc
# Method in brief: as §1
# [17] = target: Neu5Ac(a2-3)GalNAc(b1-4)GlcNAc
# Method in brief: as §1
# [18] = target: Neu5Ac(a2-3)[GalNAc(b1-4)]Gal(b1-4)Glc
# Method in brief: as §1
# [19] = target: Neu5Ac(a2-3)[GalNAc(b1-4)]Gal(b1-4)GlcNAc
# Method in brief: as §1
# [20] = target: Neu5Ac(a2-3)[GalNAc(b1-4)]Gal(b1-4)GlcNAc(b1-3)GalNAc
# Method in brief: as §1
# [21] = target: Neu5Ac(a2-3)[Neu5Ac(a2-6)]GalNAc
# Method in brief: as §1
# Neu5Ac(a2-6)Gal = target: Neu5Ac(a2-6)Gal
# Method in brief: as §1
# [22] = target: Neu5Ac(a2-6)Gal(b1-3)GlcNAc(b1-3)[Gal(b1-4)GlcNAc(b1-6)]Gal(b1-4)Glc
# Method in brief: as §1
# Neu5Ac(a2-6)Gal(b1-4)Glc = target: Neu5Ac(a2-6)Gal(b1-4)Glc
# Method in brief: as §1
# [23] = target: Neu5Ac(a2-6)Gal(b1-4)GlcNAc
# Method in brief: as §1
# [24] = target: Neu5Ac(a2-6)Gal(b1-4)GlcNAc(b1-2)Man
# Method in brief: as §1
# [25] = target: Neu5Ac(a2-6)Gal(b1-4)GlcNAc(b1-2)Man(a1-3)Man(b1-4)GlcNAc(b1-4)GlcNAc
# Method in brief: as §1
# [26] = target: Neu5Ac(a2-6)Gal(b1-4)GlcNAc(b1-2)Man(a1-3)[Gal(b1-4)GlcNAc(b1-2)Man(a1-6)]Man(b1-4)GlcNAc(b1-4)GlcNAc
# Method in brief: as §1
# [27] = target: Neu5Ac(a2-6)Gal(b1-4)GlcNAc(b1-2)Man(a1-3)[GlcNAc(b1-2)Man(a1-6)]Man(b1-4)GlcNAc(b1-4)GlcNAc
# Method in brief: as §1
# [28] = target: Neu5Ac(a2-6)Gal(b1-4)GlcNAc(b1-2)Man(a1-3)[GlcNAc(b1-4)][Neu5Ac(a2-6)Gal(b1-4)GlcNAc(b1-2)Man(a1-6)]Man(b1-4)GlcNAc(b1-4)GlcNAc
# Method in brief: as §1
binder,measurement,setting,value
B1,glycan array binding signal (z-score),[1],0.651
same,glycan array binding signal (z-score),[2],1.01
same,glycan array binding signal (z-score),[3],-0.164
same,glycan array binding signal (z-score),[4],0.292
same,glycan array binding signal (z-score),[5],-0.356
same,glycan array binding signal (z-score),[6],0.029
same,glycan array binding signal (z-score),[7],-0.543
same,glycan array binding signal (z-score),[8],0.393
same,glycan array binding signal (z-score),[9],0.142
same,glycan array binding signal (z-score),[10],-0.136
same,glycan array binding signal (z-score),[11],0.824
same,glycan array binding signal (z-score),[12],0.282
same,glycan array binding signal (z-score),[13],-0.662
same,glycan array binding signal (z-score),[14],-0.047
same,glycan array binding signal (z-score),[15],-0.571
same,glycan array binding signal (z-score),[16],-0.421
same,glycan array binding signal (z-score),Neu5Ac(a2-3)GalNAc,-0.206
same,glycan array binding signal (z-score),[17],0.241
same,glycan array binding signal (z-score),[18],-0.687
same,glycan array binding signal (z-score),[19],-0.464
same,glycan array binding signal (z-score),[20],0.199
same,glycan array binding signal (z-score),[21],-0.23
same,glycan array binding signal (z-score),Neu5Ac(a2-6)Gal,-0.313
same,glycan array binding signal (z-score),[22],-0.171
same,glycan array binding signal (z-score),Neu5Ac(a2-6)Gal(b1-4)Glc,-0.088
same,glycan array binding signal (z-score),[23],-0.043
same,glycan array binding signal (z-score),[24],0.013
same,glycan array binding signal (z-score),[25],0.028
same,glycan array binding signal (z-score),[26],0.086
same,glycan array binding signal (z-score),[27],-0.106
same,glycan array binding signal (z-score),[28],-0.702
